± gives the standard deviation of the averaged measurements. The list shows a part of the results.

In this assay the test system is PfAP2-I AP2 domain 3 (GST-tagged). The assay can be described thus: gcPBM binding intensity (ln(normalized median fluorescence intensity)); higher = stronger DNA binding. In a few lines:
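Binding intensity values are the highest Masliner-normalised natural-log median intensity among replicate spots of either probe orientation. The binding step lasted 1 h in 1× PBS with 1% milk, 0.2 mg/ml BSA, 0.5% salmon testes DNA and 0.03% Triton X-100, using GST-tagged P. falciparum DNA-binding domains expressed in E. coli on an Agilent 4 × 180k array of primer-extended double-stranded 36-bp intergenic genomic probes plus negative controls. Alexa488 anti-GST antibody and a 488 nm scan detected bound protein.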
Take “ATATATATATGTCAAAGTACTAAAAATATATACATA [XGTACX_site3397]”: the “gcPBM binding intensity (ln)” value worked out at 9.025 ± 0.035.
With “CATAGAATAATTTATTGTACGTGCATGCTATTTTTT [XGTACX_site8984]” the figure was 8.37 ± 0.66.
With “AAAATAAATTTTTATGTTATATATACAATTTCTCTA [CACACA_negctrl_site1760]” the figure was 7.32 ± 0.62; with “AATGCTATCTTCTTATTTTTCATACACAACATGAAC [CACACA_negctrl_site1809]”, 8.1 ± 0.73.
With “TATAATATTTATATAACACACATATATATTTATTTA [CACACA_site280]” the figure was 7.58 ± 0.28; with “TATACATTTTTATAAAGTACACAAAAATAAATATAA [XGTACX_site1647]”, 7.89 ± 0.27.
For “ATTAAATATATGATGTGTACATATTCGTGTATGTTT [XGTACX_site2141]”, the “gcPBM binding intensity (ln)” value stood at 7.75 ± 0.59.
Then “AAACAGAATACATATACACACATACAAAAAAGTGCA [CACACA_site8235]”, with 7.95 ± 0.35.
With “TTATGAAATAGAATAACACACATATTTATATATGTG [CACACA_site2050]” the figure was 7.42 ± 0.59; with “TTTAATGAAAGAAACACATACGTATCAAAATATATG [TGCATGCA_negctrl_site510]”, 7.71 ± 0.69.
Then “TACGTTGTATATTTTTGTACATATTGAATTACAAAA [XGTACX_site5906]”, with 7.75 ± 0.23.
As for “TTTTAATAATTTATAAAAAAAAAAAAAAAATAAATA [TGCATGCA_negctrl_site419]”, the “gcPBM binding intensity (ln)” value was determined as 7.42 ± 0.33.
In the case of “GTGTACAAAATATGGTAATAAAGTAGTTACATGAAT [CACACA_negctrl_site1775]”, the “gcPBM binding intensity (ln)” value worked out at 8.04 ± 0.72.
With “CTAAATTGTTAATAGAGTACATTTGTATAATATAAG [XGTACX_site594]” the figure was 7.68 ± 0.35; with “AATAAAATATAATAATTAATATATATATATATATAA [GTGCAC_negctrl_site457]”, 7.7 ± 0.35; with “TTATGTTGTAAATACACACATACATATACATACACA [CACACA_site733]”, 7.84 ± 0.4.
Then “TATGTGAAATAAGGATGTACAATTTTGATTTCCCCA [XGTACX_site8389]”, with 7.83 ± 0.56; and “CATATAAACAATAACACACACCTAGGTACATGGAAA [CACACA_site4615]”, with 8 ± 0.56; and “CTTTTTAATTTATCGACACACGCATGAATAGAAATT [CACACA_site9112]”, with 7.9 ± 0.47.
With “AAAGCAAATAATAAGTGTACGGGTCAATATATGCGT [XGTACX_site1519]” the figure was 8.09 ± 0.61; with “GAACAATATATTTGCACACAAAAAATATATATTTAT [CACACA_site3317]”, 9.54 ± 0.29.
As for “TAGATTTAAAAAAAAAAAAAATTTTTTTTTTTTTTT [TGCATGCA_negctrl_site593]”, the “gcPBM binding intensity (ln)” value came out at 8.4 ± 0.84.
Then “GAATACTCATTTCTTTGTACATATATATGTGTATTT [XGTACX_site6411]”, with 7.73 ± 0.59.
With “ATACAAGTATTAATTACACACTCAAAAAGAAAAAAC [CACACA_site5287]” the figure was 7.8 ± 0.61; with “GGATAAAAAATATGTACACACATATAGATATCTATA [CACACA_site2693]”, 7.89 ± 0.31; with GTTTACATCATTCTGGTGCAAAAAAAAAAAAAAATA, 10.7 ± 0.27.
Then “TTCATATGGAATAAAAGTACGTATTAAAACAATTTT [XGTACX_site8742]”, with 7.93 ± 0.52; and “CAGACATATTAAAAGAGTACATATATATATATATAT [XGTACX_site1158]”, with 9.6 ± 0.36.
Regarding “TGTTTATTACTCAGGTGTACTCAATTTTTTTTTTTT [XGTACX_site3470]”, the “gcPBM binding intensity (ln)” value worked out at 8.03 ± 0.38.
With “TACACAAATATATACATACACACATATATACGCATA [CACACA_site394]” the figure was 7.72 ± 0.47; with “TAATATTGACTATATACACACATATATATATATATA [CACACA_site575]”, 9.39 ± 0.57; with “TATTTACAAAAAAAATATAAAAAATATAAAATATAT [CACACA_negctrl_site575]”, 7.39 ± 0.42.
With “TGTATAATATTTGGTGCACACAAATTAACAACTGTT [CACACA_site9245]” the figure was 11.1 ± 0.54; with “AATATTAAAATAAAAAGTACTTATTTATGTATGTTG [XGTACX_site2682]”, 7.75 ± 0.32.
Then “TTTATATAACAACAAAATGGAAATATATATGTATGT [TGCATGCA_negctrl_site98]”, with 7.95 ± 0.57; and “AAAAAAAAAAAAGAACGTACAAATTAATTTATAGAA [XGTACX_site5584]”, with 7.7 ± 0.35; and “ATATATCTATAAAAGGCTTCCCACTTTTTTTGTCAA [TGCATGCA_negctrl_site332]”, with 7.55 ± 0.95.
On to “ATAATAAAAAAAATTAGTACATATATAAATATAAAT [XGTACX_site1937]”, for which the “gcPBM binding intensity (ln)” value came to 7.51 ± 0.42.
As for “TAATTTCTTAGGTATTGTACAAATATTATATGATAT [XGTACX_site256]”, the “gcPBM binding intensity (ln)” value is 7.55 ± 0.59.
With “AGTACATTTTTGTGTGTGCACTAATATTATATACTT [GTGCAC_site9568]” the figure was 11.3 ± 0.62; with “ATAAAAAAAAAAAAAAGTACACATATAAAAGTATTG [XGTACX_site8265]”, 7.83 ± 0.26.
On to “TAAATAATATCTATCACACACGCATAAATACAGATA [CACACA_site5449]”, for which the “gcPBM binding intensity (ln)” value worked out at 7.71 ± 0.25.
With “ATTTATTTTATTTTCACACACAAAAATAAATATCCG [CACACA_site2414]” the figure was 7.83 ± 0.64; with “AAATTTATGTGTGCCTGTACATATCAAAGATTTAAG [XGTACX_site8547]”, 7.93 ± 0.34.
Then “CGCAATTAAAATATGTGTCCTCATTTTATAACATTT [XGTACX_site5340]”, with 7.73 ± 0.58; and “ATTCTACCACGCGATATACACACTTGTAGACATCTT [CACACA_site188]”, with 8.21 ± 0.68.
“TATAATGTATGTAGTGCACACCTCTATAATATATTA [CACACA_site8560]”: the “gcPBM binding intensity (ln)” value came out at 10.9 ± 0.64.
Consider “AAATGAATAAATAGGTCACACACAAATATATATAAA [CACACA_site8764]”, for which the “gcPBM binding intensity (ln)” value amounted to 7.79 ± 0.59.
With “ATATATATATATATATGTACATATACATATGTGCAA [XGTACX_site5604]” the figure was 9.07 ± 0.66; with “AATAAATAAAGAAGTACACACATATATATATATATA [CACACA_site4314]”, 9.26 ± 0.23.
For “TATTTTTAAAATATAAGTAAAAAAATAATATAAACT [TGCATGCA_negctrl_site283]”, the “gcPBM binding intensity (ln)” value was 7.88 ± 0.67.
With “ATGTAATATTTACAACGTACAAATTATAAACATATT [XGTACX_site603]” the figure was 7.71 ± 0.57.
With “TCATATTGGCTGTTCTGTACTTATAAGTTTTAAAGA [XGTACX_site5593]” the figure was 7.9 ± 0.51; with “TTTGTTAATATAAAAACACACAAAAATAACATAAAA [CACACA_site2619]”, 8.04 ± 0.58; with “TATATTAAAAAAGAGGTGCATTCGTAAGAGGTTAAA [GTGCAC_site9720]”, 10.18 ± 0.042.
Turning to “AATCCCCACTTGTCAAGTACATATATCATGGATGAA [XGTACX_site3486]”, the “gcPBM binding intensity (ln)” value stood at 7.82 ± 0.58.

Source of the values: the supplement of paper PMC11417369.
